Laboratory results published in PubChem BioAssay AID504832 (National Center for Advancing Translational Sciences (NCATS), 2011).
In all, about 310,000 compounds went through this assay and about 18,000 (5.8%) were called active. Inconclusive means that the source gave no clear call. Such entries were picked first, then a sample of the others. The call rests on the fitted dose curve; in most records, active means well fitted inhibition curve with a large enough effect; inconclusive means small, poorly fitted or top-dose-only effect, or another doubt; inactive means no such curve, though single readings can be large or run the other way. Potencies of inconclusive entries are left out as doubtful fits.

Assay: Primary qHTS for delayed death inhibitors of the malarial parasite plastid, 48 hour incubation
Details: P. falciparum luciferase growth in erythrocytes; series mostly up to 28.7 µM; activity change, negative = inhibition: at the top concentration
In short: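 Growth was read as firefly luciferase luminescence after a 48 h, 37 C, 5% CO2 exposure of compounds to reporter-bearing P. falciparum cultures (0.1% parasitemia, 2% hematocrit final) in Albumax-supplemented RPMI 1640.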
On the % scale 0 is the no-effect control and ±100 the full control effect; potency means the concentration at half of the fitted maximal effect; tags describe the fitted curve by direction and shape.

For `O=C(O)c1ccc2c(c1)C(=O)N([C@H](Cc1ccc([N+](=O)[O-])cc1)C(=O)O)C2=O`, which Potency is on record?
Its Potency is inconclusive [inhibitor, partial curve, poor fit].

For `CC(=O)Nc1ccc(N2CCCCC2)cc1`, which “activity change, negative = inhibition” value is on record?
The value was inactive: 13.6%.

Which Potency does the source give for `O=C(O)c1cn(Cc2ccccn2)c(=O)c2ccccc12` here?
Its Potency is inconclusive [inhibitor, partial curve, poor fit].

For `CCSC1=C(C#N)C2(CCCCC2)C(C#N)C(=O)N1` (centres undefined), which “activity change, negative = inhibition” value is on record?
Its value is inactive: 12.2%.

For `COC(=O)c1cc(NCc2c(F)cccc2Cl)ccc1N1CCOCC1`, which Potency is on record?
Its Potency is inconclusive [inhibitor, single point].

With `O=C(O)CC(SCc1ccc(C(=O)O)o1)C(=O)O` (centres undefined) as the molecule, how does the Potency read?
Its Potency is inconclusive [inhibitor, single point].

Which Potency does the source give for `COc1ccc2cc3cc(C(=O)NCCCN4CCc5ccccc5C4)sc3nc2c1` here?
The Potency was inconclusive [inhibitor, single point].

With `CC(C)C(=O)Nc1ccc(S(=O)(=O)Nc2nccc(/C=C/c3ccccc3)n2)cc1` as the molecule, how does the “activity change, negative = inhibition” value read?
The value was inactive: 10.6%.

With `CN(Cc1ccc(N(C)C)cc1)C(=O)c1cc2ccccc2o1` as the molecule, how does the “activity change, negative = inhibition” value read?
The value was inactive: 28%.

Which Potency does the source give for `CCN(CC(=O)Nc1cc(Cl)ccc1C)C(=O)c1ccc2c(=O)n3c(nc2c1)CCC3` here?
Its Potency is inconclusive [inhibitor, single point].

Which “activity change, negative = inhibition” value does the source give for `CCCC1C(C#N)=C(N)Oc2n[nH]c(C(C)(C)C)c21` (centres undefined) here?
Its value is inactive: -4.59%.

For `CC[C@@H](C)[C@@H](C(=O)N1CCN(C(=O)OC(C)(C)C)CC1)n1cc(CCCN=C(NC(=O)OC(C)(C)C)NC(=O)OC(C)(C)C)nn1`, which Potency is on record?
The Potency was inconclusive [inhibitor, full curve].

Which Potency does the source give for `Cc1onc(-c2ccccc2)c1C(=O)OCCOc1cccc(Cl)c1` here?
The Potency was inconclusive [inhibitor, single point].

For `Nc1ccc(N2CCCCC2)c2nonc12`, which Potency is on record?
Its Potency is inconclusive [inhibitor, partial curve, poor fit].

With `O=C(Nc1nccs1)c1cccnc1` as the molecule, how does the “activity change, negative = inhibition” value read?
The value was inactive: 45.4%.

With `Cc1ccc2nc(NC(=O)CSCC(=O)Nc3cc(C)on3)sc2c1` as the molecule, how does the “activity change, negative = inhibition” value read?
Its value is inactive: 222%.

For `CSc1ccc(C(=O)C2CCCN(Cc3cccnc3)C2)cc1` (centres undefined), which Potency is on record?
The Potency was inconclusive [inhibitor, single point].

Which Potency does the source give for `COCCCNCCOCCOc1ccc(Cl)cc1C(C)(C)C` here?
The Potency was inconclusive [inhibitor, single point].

For `CCC(CC)C(=O)N(c1ccc(F)cc1)C1C=CS(=O)(=O)C1` (centres undefined), which Potency is on record?
The Potency was inconclusive [inhibitor, partial curve, poor fit].

Which “activity change, negative = inhibition” value does the source give for `CC(C)c1ccc(NC(=O)CN2CCN(C(=O)C3CCCO3)CC2)cc1` (centres undefined) here?
Its value is inactive: 9.32%.

For `O=C(Cc1cc(=O)[nH]c(=O)[nH]1)N1CCN(C(=O)c2ccco2)CC1`, which “activity change, negative = inhibition” value is on record?
Its value is inactive: 26.8%.

Which Potency does the source give for `COCCNC(=O)c1ccc(NC(=O)C2(c3ccccc3)CCCC2)cc1` here?
The Potency was inconclusive [inhibitor, single point].

With `O=C(NC1CC1)c1ccc(Cl)c(S(=O)(=O)N2CCOCC2)c1` as the molecule, how does the Potency read?
Its Potency is inconclusive [inhibitor, partial curve].

For `CCC1CCCCN1C(=O)COc1ccc2c3c(c(=O)oc2c1)CCC3` (centres undefined), which Potency is on record?
Its Potency is inconclusive [inhibitor, single point].

For `C=CCn1c(SCC(=O)Nc2c(C)n(C)n(-c3ccccc3)c2=O)nc2ccccc2c1=O`, which Potency is on record?
Its Potency is inconclusive [inhibitor, single point].

For `Cc1ccc(C(c2nnnn2CS(=O)(=O)c2ccc(C)cc2)N2CCC(C)CC2)cc1` (centres undefined), which Potency is on record?
The Potency was inconclusive [inhibitor, partial curve].

Which Potency does the source give for `O=C(NCCOc1ccccc1)c1ccccc1[N+](=O)[O-]` here?
Its Potency is inconclusive [inhibitor, full curve, poor fit].

For `C#CCOCCOCCOCCNc1nc(N2CCN(C(=O)Cn3cc(CCCN=C(N)N)nn3)CC2)nc(N2CCN(C(=O)[C@H](C)n3cc(CCCN=C(N)N)nn3)CC2)n1`, which Potency is on record?
The Potency was inconclusive [inhibitor, full curve, poor fit].

For `CCOC(=O)c1ccccc1NC(=O)c1ccc2c(=O)n3c(nc2c1)CCCCC3`, which Potency is on record?
Its Potency is inconclusive [inhibitor, single point].

With `COc1ccc(C)cc1NC(=O)c1ccc(NS(=O)(=O)c2cccc3cccnc23)cc1` as the molecule, how does the Potency read?
Its Potency is inconclusive [inhibitor, single point].

For `Cc1cc2c(NC3CCCCC3)ncnc2s1`, which “activity change, negative = inhibition” value is on record?
Its value is inactive: -15.5%.

Which Potency does the source give for `COc1ccc(N2C(=O)CC2(/C=C/c2ccccc2OC)C(=O)NC2CCCC2)cc1` (centres undefined) here?
The Potency was active: 11.7 µM.

Which Potency does the source give for `Cc1cc(OC(C)C(=O)NCC(O)c2ccccc2)c2c(C)cc(=O)oc2c1` (centres undefined) here?
Its Potency is inconclusive [inhibitor, partial curve].

For `CC1CCCN(CCOCCOc2ccc(Br)cc2Cl)C1` (centres undefined), which Potency is on record?
The Potency was inconclusive [inhibitor, single point].

Which Potency does the source give for `CCCN1CCN(C(=O)C2CCN(c3nnc(C)c4c(C)n(-c5ccc(C)cc5)nc34)CC2)CC1` here?
The Potency was active: 10.4 µM.

With `COc1ccc(CCC(=O)NCc2ccco2)cc1` as the molecule, how does the “activity change, negative = inhibition” value read?
Its value is inactive: -25%.

Which Potency does the source give for `CCN(CC)CCN(Cc1cc2cc(C)ccc2[nH]c1=O)C(=S)NCc1ccco1` here?
Its Potency is active: 6.57 µM.

For `COC(=O)c1cccc(Cn2c(Cl)c(/C=N/NC(=O)c3ccco3)sc2=O)c1`, which Potency is on record?
Its Potency is active: 9.28 µM.

Which Potency does the source give for `CCCc1c(C(=O)N/N=C/c2ccccc2C(F)(F)F)nnn1-c1nonc1N` here?
The Potency was inconclusive [inhibitor, partial curve].

For `CSc1ccccc1OCc1cc(C(=O)N2CCN(C3CCCC3)C(=O)C2)no1`, which Potency is on record?
The Potency was inconclusive [inhibitor, partial curve, poor fit].

For `COc1cc2c(cc1OC)[C@@]13CCN4CC5=CCO[C@H]6CC(=O)N2[C@H]1[C@H]6[C@H]5C[C@H]43`, which “activity change, negative = inhibition” value is on record?
The value was inactive: -27.8%.

For `CC(C)(C)N(Cc1ccccc1)C(=O)c1cccs1`, which “activity change, negative = inhibition” value is on record?
Its value is inactive: 30.5%.

With `COc1ccccc1N1CCN(C(=O)c2ccc3[nH]c(C)c(C)c3c2)CC1` as the molecule, how does the Potency read?
Its Potency is inconclusive [inhibitor, partial curve, poor fit].

For `CCCCOc1ccc(C(=O)Nc2ccc(N3CCN(C(=O)C(C)C)CC3)cc2)cc1`, which Potency is on record?
The Potency was active: 9.28 µM.
